Measurements published in PMC12820563.
Some of the results follow. The list includes weakly bound sequences.

Each sequence was assayed against T1, MBP-FoxP3dN (UniProt Q99JB6) (assay: PD-seq (MBP pull-down with sequencing)). Conditions: 20 mM Tris-HCl pH 7.5, 100 mM NaCl, 1.5 mM MgCl2, 0.4 uM protein, 0.1 uM dsDNA library, 30 min, room temperature, amylose pull-down; high values mean tight binding; double strand, one strand shown.
T1 sequence: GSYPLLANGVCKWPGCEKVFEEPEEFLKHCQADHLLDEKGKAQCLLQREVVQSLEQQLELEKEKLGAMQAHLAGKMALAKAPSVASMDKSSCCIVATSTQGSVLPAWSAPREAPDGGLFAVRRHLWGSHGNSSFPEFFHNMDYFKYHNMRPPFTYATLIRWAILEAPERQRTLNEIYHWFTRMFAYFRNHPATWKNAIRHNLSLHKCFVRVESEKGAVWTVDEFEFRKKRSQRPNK

Sequence	binding signal (RPM ratio (pull-down/input))
GATGATTGTTCTCCCAGCTGATGAATTCAGACAATCGAGTAAACAAATTTTCCTAATCTTTCTGTTCAAGCGCCATCTAC	0.311
GATGATTGTTCTCCCAGCTGATGAATTGGATAGATCGAGTAAACAAATTTTCCTAATCTTTCTGTTCAAGCGCCATCTAC	0.266
GATGATTGTTCTCCCAGCTGATGAATTGTGAAAGTCGAGTAAACAAATTTTCCTAATCTTTCTGTTCAAGCGCCATCTAC	0.279
GATGATTGTTCTCCCAGCTGATGAATTTCAAGGCTCGAGTAAACAAATTTTCCTAATCTTTCTGTTCAAGCGCCATCTAC	0.197
GATGATTGTTCTCCCAGCTGATGAATTGGATGCATCGAGTAAACAAATTTTCCTAATCTTTCTGTTCAAGCGCCATCTAC	2.68
GATGATTGTTCTCCCAGCTGATGAATTGGGGTGCTCGAGTAAACAAATTTTCCTAATCTTTCTGTTCAAGCGCCATCTAC	0.503
GATGATTGTTCTCCCAGCTGATGAATTGAATTTGTCGAGTAAACAAATTTTCCTAATCTTTCTGTTCAAGCGCCATCTAC	1.66
GATGATTGTTCTCCCAGCTGATGAATTATGTTCCTCGAGTAAACAAATTTTCCTAATCTTTCTGTTCAAGCGCCATCTAC	1.46
GATGATTGTTCTCCCAGCTGATGAATTTTATGTGTCGAGTAAACAAATTTTCCTAATCTTTCTGTTCAAGCGCCATCTAC	2.49
GATGATTGTTCTCCCAGCTGATGAATTTGGAGTATCGAGTAAACAAATTTTCCTAATCTTTCTGTTCAAGCGCCATCTAC	0.673
GATGATTGTTCTCCCAGCTGATGAATTAGGAATCTCGAGTAAACAAATTTTCCTAATCTTTCTGTTCAAGCGCCATCTAC	1.47
GATGATTGTTCTCCCAGCTGATGAATTTTTCTTCTCGAGTAAACAAATTTTCCTAATCTTTCTGTTCAAGCGCCATCTAC	0.273
GATGATTGTTCTCCCAGCTGATGAATTCCTATGTTCGAGTAAACAAATTTTCCTAATCTTTCTGTTCAAGCGCCATCTAC	0.495
GATGATTGTTCTCCCAGCTGATGAATTCGCCTTGTCGAGTAAACAAATTTTCCTAATCTTTCTGTTCAAGCGCCATCTAC	0.828
GATGATTGTTCTCCCAGCTGATGAATTCAGATGGTCGAGTAAACAAATTTTCCTAATCTTTCTGTTCAAGCGCCATCTAC	0.424
GATGATTGTTCTCCCAGCTGATGAATTGCAAGGCTCGAGTAAACAAATTTTCCTAATCTTTCTGTTCAAGCGCCATCTAC	0.628
GATGATTGTTCTCCCAGCTGATGAATTGTAGAGATCGAGTAAACAAATTTTCCTAATCTTTCTGTTCAAGCGCCATCTAC	0.337
GATGATTGTTCTCCCAGCTGATGAATTAGTTGTATCGAGTAAACAAATTTTCCTAATCTTTCTGTTCAAGCGCCATCTAC	5.31
GATGATTGTTCTCCCAGCTGATGAATTTTTATGGTCGAGTAAACAAATTTTCCTAATCTTTCTGTTCAAGCGCCATCTAC	0.277
GATGATTGTTCTCCCAGCTGATGAATTTAGGATGTCGAGTAAACAAATTTTCCTAATCTTTCTGTTCAAGCGCCATCTAC	0.523

Sequence	binding signal (RPM ratio (pull-down/input))
GATGATTGTTCTCCCAGCTGATGAATTGCTTCGATCGAGTAAACAAATTTTCCTAATCTTTCTGTTCAAGCGCCATCTAC	0.445
GATGATTGTTCTCCCAGCTGATGAATTAGTCATTTCGAGTAAACAAATTTTCCTAATCTTTCTGTTCAAGCGCCATCTAC	2.06
GATGATTGTTCTCCCAGCTGATGAATTCTGACTTTCGAGTAAACAAATTTTCCTAATCTTTCTGTTCAAGCGCCATCTAC	1.12
GATGATTGTTCTCCCAGCTGATGAATTTTACCAGTCGAGTAAACAAATTTTCCTAATCTTTCTGTTCAAGCGCCATCTAC	0.19
GATGATTGTTCTCCCAGCTGATGAATTCTTACGTTCGAGTAAACAAATTTTCCTAATCTTTCTGTTCAAGCGCCATCTAC	0.283
GATGATTGTTCTCCCAGCTGATGAATTAGTAAGCTCGAGTAAACAAATTTTCCTAATCTTTCTGTTCAAGCGCCATCTAC	0.768
GATGATTGTTCTCCCAGCTGATGAATTTTTCGCCTCGAGTAAACAAATTTTCCTAATCTTTCTGTTCAAGCGCCATCTAC	0.467
GATGATTGTTCTCCCAGCTGATGAATTAACGAATTCGAGTAAACAAATTTTCCTAATCTTTCTGTTCAAGCGCCATCTAC	0.722
GATGATTGTTCTCCCAGCTGATGAATTTCTGCCATCGAGTAAACAAATTTTCCTAATCTTTCTGTTCAAGCGCCATCTAC	2.1
GATGATTGTTCTCCCAGCTGATGAATTGTCCAAGTCGAGTAAACAAATTTTCCTAATCTTTCTGTTCAAGCGCCATCTAC	0.196
GATGATTGTTCTCCCAGCTGATGAATTGGCGTATTCGAGTAAACAAATTTTCCTAATCTTTCTGTTCAAGCGCCATCTAC	1.54
GATGATTGTTCTCCCAGCTGATGAATTTACTTAGTCGAGTAAACAAATTTTCCTAATCTTTCTGTTCAAGCGCCATCTAC	0.917
GATGATTGTTCTCCCAGCTGATGAATTTGCTTGATCGAGTAAACAAATTTTCCTAATCTTTCTGTTCAAGCGCCATCTAC	2.2
GATGATTGTTCTCCCAGCTGATGAATTCGAGAGTTCGAGTAAACAAATTTTCCTAATCTTTCTGTTCAAGCGCCATCTAC	0.381
GATGATTGTTCTCCCAGCTGATGAATTAACGAGCTCGAGTAAACAAATTTTCCTAATCTTTCTGTTCAAGCGCCATCTAC	0.193
GATGATTGTTCTCCCAGCTGATGAATTCGGTGTTTCGAGTAAACAAATTTTCCTAATCTTTCTGTTCAAGCGCCATCTAC	1.99
GATGATTGTTCTCCCAGCTGATGAATTAAGCAAATCGAGTAAACAAATTTTCCTAATCTTTCTGTTCAAGCGCCATCTAC	0.581
GATGATTGTTCTCCCAGCTGATGAATTCGCACGATCGAGTAAACAAATTTTCCTAATCTTTCTGTTCAAGCGCCATCTAC	0.335
GATGATTGTTCTCCCAGCTGATGAATTGTCGGACTCGAGTAAACAAATTTTCCTAATCTTTCTGTTCAAGCGCCATCTAC	0.306
GATGATTGTTCTCCCAGCTGATGAATTAGGGTGATCGAGTAAACAAATTTTCCTAATCTTTCTGTTCAAGCGCCATCTAC	0.498
